The name of at least one read-out is uncertain.
test system: GLA splicing reporter vector (GLA splicing: exon 4+exon 5 vs exon 4+pseudoexon+exon 5); test: GLA splicing reporter assay (GFP/RFP fluorescence ratio) in transfected HeLa cells; assay type: cell-based; settings: 10 μM evaluation compound, 0.1% DMSO, HeLa cell line, 16 hours after addition; GFP signal/RFP signal ratio, with ratio of 10 μM positive control 2-chloro-6-(2-furylmethyl)purine as 1

Q: How did the GLA_Signal_REC_10_2 turn out when O=C1OC(COc2cccc3c(NCc4ccco4)nc(Cl)nc23)CN1CC1CC1 (stereo not drawn) [Example 190, 5-[({2-Chloro-4-[(furan-2-ylmethyl)amino]quinazolin-8-yl}oxy)methyl]-3-(cyclopropylmethyl)-1,3-oxazolidin-2-one] was run?
A: Its GLA_Signal_REC_10_2 is 3.79.

Q: Which GLA_Signal_REC_10_2 does the source give for O=C1OC(COc2cccc3c(NCc4ccco4)nc(Cl)nc23)CN1CC(F)F (stereo not drawn) [Example 191, 5-[({2-Chloro-4-[(furan-2-ylmethyl)amino]quinazolin-8-yl}oxy)methyl]-3-(2,2-difluoroethyl)-1,3-oxazolidin-2-one] here?
A: The GLA_Signal_REC_10_2 was 3.01.

Q: With O=C1OC(COc2cccc3c(NCc4ccco4)nc(Cl)nc23)CN1CCO (stereo not drawn) [Example 192, 5-[({2-Chloro-4-[(furan-2-ylmethyl)amino]quinazolin-8-yl}oxy)methyl]-3-(2-hydroxyethyl)-1,3-oxazolidin-2-one] as the molecule, how does the GLA_Signal_REC_10_2 read?
A: The GLA_Signal_REC_10_2 was 5.26.

Q: Which GLA_Signal_REC_10_2 does the source give for O=C1OC(COc2cccc3c(NCc4ccco4)nc(Cl)nc23)CN1C1COC1 (stereo not drawn) [Example 193, 5-[({2-Chloro-4-[(furan-2-ylmethyl)amino]quinazolin-8-yl}oxy)methyl]-3-(oxetan-3-yl)-1,3-oxazolidin-2-one] here?
A: The GLA_Signal_REC_10_2 was 3.38.

Q: How did the GLA_Signal_REC_10_2 turn out when CC(C)(O)CN1CC(COc2cccc3c(NCc4ccco4)nc(Cl)nc23)OC1=O (stereo not drawn) [Example 194, 5-[({2-Chloro-4-[(furan-2-ylmethyl)amino]quinazolin-8-yl}oxy)methyl]-3-(2-hydroxy-2-methylpropyl)-1,3-oxazolidin-2-one] was run?
A: The GLA_Signal_REC_10_2 was 0.9.

Q: For CCNC(=O)N1CC(COc2cccc3c(NCc4ccco4)nc(Cl)nc23)OC1=O (stereo not drawn) [Example 195, 5-[({2-Chloro-4-[(furan-2-ylmethyl)amino]quinazolin-8-yl}oxy)methyl]-N-ethyl-2-oxo-1,3-oxazolidine-3-carboxamide], which GLA_Signal_REC_10_2 is on record?
A: Its GLA_Signal_REC_10_2 is 1.34.

Q: How did the GLA_Signal_REC_10_2 turn out when O=C1CC(COc2cccc3c(NCc4ccco4)nc(Cl)nc23)CN1CCO (stereo not drawn) [Example 196, 4-[({2-Chloro-4-[(furan-2-ylmethyl)amino]quinazolin-8-yl}oxy)methyl]-1-(2-hydroxyethyl)pyrrolidin-2-one] was run?
A: Its GLA_Signal_REC_10_2 is 3.2.

Q: How did the GLA_Signal_REC_10_2 turn out when O=C1CC(COc2cccc3c(NCc4ccco4)nc(Cl)nc23)CN1CCF (stereo not drawn) [Example 197, 4-[({2-Chloro-4-[(furan-2-ylmethyl)amino]quinazolin-8-yl}oxy)methyl]-1-(2-fluoroethyl)pyrrolidin-2-one] was run?
A: The GLA_Signal_REC_10_2 was 1.69.

Q: How did the GLA_Signal_REC_10_2 turn out when C#CCN1CC(COc2cccc3c(NCc4ccco4)nc(Cl)nc23)OC1=O (stereo not drawn) [Example 198] was run?
A: Its GLA_Signal_REC_10_2 is 2.24.

Q: How did the GLA_Signal_REC_10_2 turn out when CC(C)(C)OC(=O)NCCOCCN1CC(COc2cccc3c(NCc4ccco4)nc(Cl)nc23)OC1=O (stereo not drawn) [Example 199] was run?
A: The GLA_Signal_REC_10_2 was 2.04.

Q: COCCOCCN1CC(COc2cccc3c(NCc4ccco4)nc(Cl)nc23)OC1=O (stereo not drawn) [Example 200] was tested. Which GLA_Signal_REC_10_2 did it give?
A: Its GLA_Signal_REC_10_2 is 1.43.

Q: Which GLA_Signal_REC_10_2 does the source give for O=C1OC(COc2cccc3c(NCc4ccco4)nc(Cl)nc23)CN1CC1COC1 (stereo not drawn) [Example 201] here?
A: Its GLA_Signal_REC_10_2 is 2.23.

Q: How did the GLA_Signal_REC_10_2 turn out when O=C1OC(COc2cccc3c(NCc4ccco4)nc(Cl)nc23)CN1Cc1ncno1 (stereo not drawn) [Example 202] was run?
A: The GLA_Signal_REC_10_2 was 1.65.

Q: How did the GLA_Signal_REC_10_2 turn out when NC(=O)CN1CC(COc2cccc3c(NCc4ccco4)nc(Cl)nc23)OC1=O (stereo not drawn) [Example 203] was run?
A: Its GLA_Signal_REC_10_2 is 1.54.

Q: With COCCN1CC(COc2cccc3c(NCc4ccco4)nc(Cl)nc23)OC1=O (stereo not drawn) [Example 204] as the molecule, how does the GLA_Signal_REC_10_2 read?
A: Its GLA_Signal_REC_10_2 is 3.65.
